Laboratory results reported in the supplement of paper PMC12217912.
Some of the results follow. The full chains were built here from the parent and the listed change. Values near 0.05 are background.

B1: TEV protease; numbered along this chain (parent)
chain: MGESLFKGPRDYNPISSSICHLTNESDGHTTSLYGIGFGPFIITNKHLFRRNNGTLVVQSLHGVFKVKDTTTLQQHLVDGRDMIIIRMPKDFPPFPQKLKFREPQREERICLVTTNFQTKSMSSMVSDTSCTFPSGDGIFWKHWIQTKDGQCGSPLVSTRDGFIVGIHSASNFTNTNNYFTSVPKNFMELLTNQEAQQWVSGWRLNADSVLWGGHKVFMVKPEEPFQPVKEATQL

Variants of: B1
Assay: raw area under fraction-flipped curve 0-4 h after induction (AUC4h, not background-subtracted), DNA-recorder readout of cleavage of the substrate (dimensionless); higher = more cleavage of the substrate by the protease variant
Settings: temperature: 34 °C; time window: 0-4 h after rhamnose induction
Method: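 In vivo DNA recorder in E. coli TOP10(DE3) ΔrhaA at 34 °C. Each TEVp single-site mutant (parent TEVp 0) is paired with a single-site variant of the 7-mer TEVs (canonical ENLYFQ|S). The substrate sits between flexible linkers in a Bxb1-sfGFP-TEVs-SsrA fusion, so cleavage stabilises Bxb1 and speeds flipping of a recombination array, read by NGS. The value is the raw area under the fraction-flipped curve over 0-4 h after rhamnose induction (AUC4h), with ≥20 reads per time point. It is not background-subtracted; inactive controls average about 0.047.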
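Note: Bxb1 expression induced with 0.2% (w/v) L-rhamnose at OD600 near 0.5, cultures sampled hourly, flipped fraction per protease–substrate barcode pair counted by paired-end Illumina sequencing.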

| Variant | area with substrate ENLYFAS | area with substrate ENLYFCS | area with substrate ENLYFDS | area with substrate ENLYFES | area with substrate ENLYFFS | area with substrate ENLYFGS | area with substrate ENLYFHS | area with substrate ENLYFIS | area with substrate ENLYFKS | area with substrate ENLYFLS | area with substrate ENLYFMS | area with substrate ENLYFNS | area with substrate ENLYFPS | area with substrate ENLYFSS | area with substrate ENLYFTS | area with substrate ENLYFVS | area with substrate ENLYFYS | area with substrate ENLYFRS | area with substrate ENLYFWS |
| --- | --- | --- | --- | --- | --- | --- | --- | --- | --- | --- | --- | --- | --- | --- | --- | --- | --- | --- | --- |
| R106S | 0.0676 | 0.0709 | 0.0603 | 0.0669 | 0.0705 | 0.0546 | 0.0702 | 0.0654 | 0.0548 | 0.0654 | 0.0511 | 0.0724 | 0.0642 | 0.0847 | 0.0648 | 0.0709 | 0.0596 | – | – |
| S121K | 0.0615 | – | 0.0575 | 0.0749 | 0.0664 | 0.0814 | 0.0648 | 0.0533 | 0.066 | 0.0646 | 0.0728 | 0.0552 | 0.0474 | 0.0504 | 0.0483 | – | 0.0253 | 0.057 | 0.0538 |
| I110N | 0.0581 | 0.0589 | 0.0443 | 0.0639 | 0.0464 | – | 0.0638 | 0.051 | 0.0505 | 0.0593 | 0.0566 | – | 0.0497 | 0.0842 | – | 0.0552 | 0.0523 | 0.0622 | 0.0585 |
| I110K | 0.0354 | 0.0604 | 0.0533 | 0.066 | 0.07 | – | 0.0479 | 0.0534 | 0.0483 | 0.0683 | 0.0683 | 0.0567 | 0.0616 | – | 0.0665 | 0.0537 | 0.059 | 0.0409 | – |
| I145V | 0.0654 | – | – | 0.0685 | – | 0.0718 | 0.0626 | 0.0626 | 0.0402 | – | 0.0708 | 0.0766 | – | 0.0586 | – | 0.0487 | 0.0421 | 0.0646 | – |
| I164G | 0.0869 | – | – | 0.0488 | – | 0.0708 | – | 0.0439 | 0.0601 | 0.0616 | 0.0526 | 0.0667 | 0.0513 | 0.0386 | – | 0.0492 | 0.0313 | 0.0505 | 0.0498 |
| S123N | 0.0615 | 0.0637 | 0.0496 | – | 0.0651 | 0.0282 | 0.0652 | 0.0519 | 0.0671 | 0.0496 | 0.0644 | 0.0686 | 0.0643 | 0.0508 | 0.0627 | 0.0691 | 0.0548 | 0.0646 | 0.0472 |
| V126C | 0.0605 | 0.0637 | 0.0429 | 0.0141 | 0.0585 | – | – | 0.0591 | – | – | 0.0621 | – | 0.0474 | – | 0.0273 | – | 0.0592 | – | – |
| T147R | 0.054 | 0.0583 | – | 0.058 | 0.0638 | – | – | 0.0639 | 0.0581 | 0.0466 | 0.0542 | – | 0.0576 | 0.0611 | 0.0538 | 0.06 | – | 0.0561 | 0.054 |
| T147M | 0.0479 | 0.0544 | – | 0.0546 | 0.0839 | – | 0.049 | 0.0663 | – | – | 0.065 | – | 0.0668 | – | – | 0.0621 | 0.0895 | 0.0605 | 0.0473 |
| Q151T | 0.0671 | 0.0539 | 0.0576 | 0.0634 | 0.0594 | 0.0736 | 0.0651 | 0.0454 | 0.0614 | 0.0457 | – | 0.0612 | 0.0586 | 0.0364 | 0.0615 | – | 0.0733 | 0.0666 | 0.0526 |
| Q151N | 0.0572 | 0.0639 | – | 0.0676 | 0.0708 | – | 0.0612 | 0.0579 | 0.073 | 0.0487 | 0.0637 | 0.0567 | 0.0541 | 0.0533 | 0.0714 | 0.0616 | – | – | 0.0543 |
| K148C | 0.0642 | 0.0553 | – | 0.0513 | 0.0635 | 0.0595 | 0.0629 | 0.0528 | 0.0537 | – | 0.076 | 0.0588 | – | 0.0637 | 0.0611 | 0.057 | – | 0.0475 | 0.0476 |
| R160W | 0.0666 | 0.0879 | – | 0.0888 | 0.0614 | – | 0.0562 | – | 0.0716 | – | 0.081 | 0.0822 | – | 0.0631 | 0.0648 | 0.0736 | – | – | 0.0587 |
| S130E | 0.0701 | – | 0.0635 | 0.0623 | 0.0411 | – | – | 0.0712 | – | – | 0.0465 | 0.0387 | 0.052 | – | 0.0586 | – | – | – | 0.0674 |
| S130V | 0.06 | 0.119 | 0.0704 | 0.0571 | 0.0187 | – | 0.0564 | 0.0589 | – | – | 0.0723 | 0.111 | 0.0565 | 0.0642 | 0.053 | 0.0663 | 0.0471 | 0.0396 | 0.0619 |
| Q146D | 0.0423 | 0.0841 | – | – | 0.0751 | – | 0.0403 | 0.069 | 0.0703 | – | 0.0762 | – | – | – | 0.0625 | – | 0.0816 | – | 0.0687 |
| G162L | 0.0609 | – | 0.041 | 0.0496 | 0.0668 | – | 0.0724 | 0.0475 | – | 0.0512 | – | 0.0644 | 0.0611 | 0.0604 | 0.0664 | – | – | 0.0663 | – |
| G162R | 0.0544 | 0.0697 | – | – | 0.052 | – | – | 0.044 | 0.071 | – | – | – | 0.0553 | – | 0.062 | 0.032 | – | – | 0.0572 |
| I139V | 0.0685 | 0.065 | 0.0666 | 0.0705 | 0.0658 | – | – | 0.0633 | 0.0505 | 0.0593 | 0.0748 | 0.0692 | 0.0451 | 0.0509 | 0.0664 | – | 0.0624 | 0.0532 | 0.056 |
| Q105I | 0.0662 | 0.0762 | 0.063 | 0.064 | 0.0601 | 0.0494 | 0.0614 | 0.0621 | – | – | 0.0703 | – | 0.0593 | 0.104 | – | 0.0604 | 0.058 | 0.0512 | 0.054 |
| Q105L | 0.0518 | 0.0482 | – | 0.0812 | 0.0664 | – | 0.0398 | 0.0763 | – | – | 0.0773 | 0.0716 | 0.0764 | 0.0596 | – | – | – | 0.0673 | – |
| K100G | 0.0577 | 0.0562 | 0.0639 | 0.0498 | 0.0588 | 0.0682 | 0.0593 | 0.0543 | 0.0628 | 0.0606 | 0.0552 | 0.0526 | 0.0656 | 0.063 | 0.058 | 0.0536 | – | 0.0698 | 0.0587 |
| L99R | 0.0723 | 0.0997 | 0.0828 | 0.0612 | 0.0584 | – | – | 0.0749 | – | 0.0516 | 0.0713 | 0.0858 | 0.0714 | – | 0.0823 | 0.0659 | – | – | 0.066 |
| K142W | 0.0637 | – | 0.0556 | 0.0687 | 0.0704 | 0.0455 | – | 0.0319 | 0.0729 | 0.0585 | 0.0482 | – | 0.0628 | 0.0468 | – | – | 0.0591 | 0.0529 | – |
